# Some of the results follow. The data describe in vitro nicking of single-stranded DNA by Rep domains (1 h at 37 °C, 3 µM enzyme); the outer parts of the 90-letter strands are left off. Values are log2 of uncut reads against the no-enzyme pool; strong cutting gives strongly negative numbers. There is no active / inactive call. Reads are scaled to the total; uncut strands gain when others are lost, and binding without cutting may add a little.
# Assays:
# Assay in all cases: uncleaved DNA left, log2 of reads against the no-enzyme library (log2 ratio); higher = less cleavage (more negative = more Rep cleavage of the k-mer); sequences stand for … in CTCGTCCG…ACCGGAGA
# [1] = test system: T1, Rep nickase domain of Muscovy duck circovirus
# T1 sequence (protein, residues 1-111, tag omitted): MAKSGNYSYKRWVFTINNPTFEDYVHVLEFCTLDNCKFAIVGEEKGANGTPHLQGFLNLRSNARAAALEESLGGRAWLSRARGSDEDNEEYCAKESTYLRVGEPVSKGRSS
# Procedure: (§1)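 A pool of 90-nt single-stranded DNAs with seven random bases just before the constant AC of the nick site (name = the seven bases) was cut by 3 µM recombinant His6-SUMO-tagged Rep nickase domain (300 nM DNA, 50 mM HEPES pH 8.0, 50 mM NaCl, 1 mM MnCl2, 1 h, 37 °C, three replicates). Uncut DNA was amplified and sequenced.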
# [2] = test system: T2, Rep nickase domain of banana bunchy top virus
# T2 sequence (protein, residues 1-94, tag omitted): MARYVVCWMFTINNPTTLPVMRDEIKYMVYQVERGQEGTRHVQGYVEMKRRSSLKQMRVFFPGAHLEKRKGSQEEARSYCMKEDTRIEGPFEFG
# Procedure: as §1
# [3] = test system: T3, Rep nickase domain of cabbage leaf curl virus
# T3 sequence (protein, residues 1-116, tag omitted): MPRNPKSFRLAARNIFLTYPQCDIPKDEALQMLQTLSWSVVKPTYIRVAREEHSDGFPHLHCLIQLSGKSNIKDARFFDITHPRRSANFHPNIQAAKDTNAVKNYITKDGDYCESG
# Procedure: as §1
# [4] = test system: T4, Rep nickase domain of chickpea chlorotic dwarf virus
# T4 sequence (protein, residues 1-124, tag omitted): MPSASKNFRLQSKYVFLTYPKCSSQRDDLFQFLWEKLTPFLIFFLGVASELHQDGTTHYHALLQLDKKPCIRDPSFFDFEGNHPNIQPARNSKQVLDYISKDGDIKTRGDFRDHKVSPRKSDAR
# Procedure: as §1
# [5] = test system: T5, Rep nickase domain of faba bean necrotic yellows virus
# T5 sequence (protein, residues 1-98, tag omitted): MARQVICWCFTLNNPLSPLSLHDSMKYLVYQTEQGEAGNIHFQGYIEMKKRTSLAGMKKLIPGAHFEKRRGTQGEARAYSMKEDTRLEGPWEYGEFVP
# Procedure: as §1
# [6] = test system: T6, Rep nickase domain of maize striate mosaic virus
# T6 sequence (protein, residues 1-117, tag omitted): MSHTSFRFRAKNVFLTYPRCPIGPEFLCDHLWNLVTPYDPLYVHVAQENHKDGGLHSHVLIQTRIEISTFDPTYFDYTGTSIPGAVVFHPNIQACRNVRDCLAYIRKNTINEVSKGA
# Procedure: as §1
# [7] = test system: T7, Rep nickase domain of porcine circovirus 2
# T7 sequence (protein, residues 2-116, tag omitted): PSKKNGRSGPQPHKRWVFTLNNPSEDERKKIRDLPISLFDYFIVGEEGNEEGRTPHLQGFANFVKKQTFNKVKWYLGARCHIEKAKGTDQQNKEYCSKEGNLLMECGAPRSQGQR
# Procedure: as §1
# [8] = test system: T8, Rep nickase domain of tomato yellow leaf curl virus
# T8 sequence (protein, residues 1-136, tag omitted): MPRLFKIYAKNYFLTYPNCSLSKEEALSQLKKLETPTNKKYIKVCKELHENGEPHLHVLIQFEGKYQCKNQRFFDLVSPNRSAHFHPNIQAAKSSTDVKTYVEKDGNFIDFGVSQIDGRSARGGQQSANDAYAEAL
# Procedure: as §1
# [9] = test system: T9, Rep nickase domain of wheat dwarf virus
# T9 sequence (protein, residues 1-137, tag omitted): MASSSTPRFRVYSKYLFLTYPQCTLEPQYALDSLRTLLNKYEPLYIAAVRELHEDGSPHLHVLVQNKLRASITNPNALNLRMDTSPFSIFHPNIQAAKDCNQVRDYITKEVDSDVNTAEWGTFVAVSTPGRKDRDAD
# Procedure: as §1
Sequence,uncleaved DNA left (log2) [1],uncleaved DNA left (log2) [2],uncleaved DNA left (log2) [3],uncleaved DNA left (log2) [4],uncleaved DNA left (log2) [5],uncleaved DNA left (log2) [6],uncleaved DNA left (log2) [7],uncleaved DNA left (log2) [8],uncleaved DNA left (log2) [9]
ATTGCCC,-0.0455,-0.0968,-0.425,-0.453,-0.0365,-0.749,-0.181,-0.177,-0.0846
TATCGCC,-0.00238,0.00758,-0.188,-0.519,-0.0482,-0.896,-0.0697,-0.0871,-0.00311
CTCCCTG,-0.0993,-0.234,-0.315,-0.623,-0.155,-0.502,-0.0903,-0.184,-0.204
ACCTCTC,0.117,0.0159,0.0567,-0.273,0.0131,-0.344,-0.0149,-0.0495,0.0104
TGGAGGG,0.183,0.164,0.136,0.251,0.162,-0.0768,0.182,-0.00811,0.0427
CCCTGCG,-0.0526,0.0795,-0.591,0.719,-0.121,-0.0915,0.276,-0.172,0.0869
TGCCATC,0.0381,0.0642,0.103,0.49,0.0213,0.126,-0.00506,0.0755,0.128
TTTAAAA,0.108,0.0914,0.338,0.379,0.135,0.13,0.104,0.128,0.19
TTGCTCT,-0.0885,-0.0721,-0.467,-1.6,0.0105,-1.15,-0.169,0.0213,-0.136
GACCACC,-0.0893,-0.0926,0.147,0.136,-0.112,0.252,-0.167,-0.0587,0.0743
GCTATGT,-0.0352,-0.129,0.0805,0.227,-0.0866,-0.0528,-0.0409,-0.0074,-0.139
GTAAGGA,0.0709,0.0653,0.202,0.327,0.0562,0.442,0.135,0.0232,0.154
CATTTTG,0.024,-0.0213,-0.683,-0.553,0.234,-1.23,0.122,0.0461,-0.00593
CATGCTG,0.00405,-0.0896,0.201,1.19,0.0571,1.15,0.158,-0.158,-0.0111
TCCTCCC,0.0689,-0.0457,0.155,-0.175,0.136,0.0702,-0.0886,-0.0719,-0.0274
GATCCGT,0.00457,0.0131,0.0576,-0.0774,-0.0123,-0.406,-0.00437,0.0497,0.0315
TCTCCCT,-0.157,-0.0212,0.0914,-1.06,-0.0144,0.514,-1.39,0.0318,0.102
TAATAGT,-4.13,-3.09,-5.37,-3.2,-0.732,-4.23,-4.51,-3.61,-4.87
ATATTCC,-0.0389,-0.0355,-0.0248,-0.134,-0.0535,-0.451,-0.468,-0.049,-0.0331
TGGACCT,0.199,0.133,0.809,1.78,0.0412,2.16,0.297,0.0984,0.306
GAAGCTG,0.0808,0.0819,0.371,1.55,0.0332,1.74,0.209,-0.115,0.12
CACCGTT,0.101,-0.131,-0.494,-2.4,-0.0343,-0.892,-2.57,-0.0645,-0.133
TGAAGAG,0.0418,0.0914,-0.0843,-0.335,0.0915,-0.802,0.141,0.145,-0.0208
GCGCTCT,-0.0416,0.0136,-0.0251,-0.627,0.00886,0.101,-0.0817,-0.0359,0.0853
TTTGTTT,-0.00769,-0.147,0.0211,-1.92,-0.0107,-0.413,-0.408,-0.063,-0.0897
GCTTTGC,-0.157,0.0872,-0.767,-0.456,0.0974,-1.03,0.211,0.139,-0.0373
TATGGTT,0.0966,-0.126,-2.12,-1.96,-0.0452,1.19,-0.365,-0.068,-0.0344
GAGACGT,0.066,0.224,0.904,2.08,0.0729,2.23,0.135,0.117,0.316
GGCTGGC,0.15,0.0025,0.472,1.04,0.0802,1.43,0.209,0.118,0.0512
CGGCGTG,-0.0537,-0.171,-0.194,0.234,-0.0182,0.426,-0.0627,-0.181,-0.118

# — the supplement of paper PMC7826260
